In patent US8039496B2, “Therapeutic compounds” (Allergan, Inc., priority 2007, dated 2011):
The name of at least one read-out is uncertain.

Test system: normotensive dogs
Assay: Intraocular pressure in normotensive dogs
Type: in vivo
Details: once daily for 5 days
Method: U.S. Pat. No. 7,091,231 describes the methods used for these in vivo tests. 5-{3-[1R,2S,3R,5R)-5-Chloro-2-(3,5-dichloro-phenoxymethyl)-3-hydroxy-cyclopentyl]-propyl}-thiophene-2-carboxylic acid was tested at multiple concentrations in normotensive dogs, dosing once daily for 5 days. At 0.1%, the maximum intraocular pressure (IOP) decrease from baseline was 7.5 mmHg (48%) at 30 h; the maximum ocular surface hyperemia (OSH) score was 2.75 at 26 h. At 0.01%, the maximum IOP decrease from baseline was 7.5 mmHg (43%) at 76 h; the maximum OSH score was 2.0 at 26 h. At 0.005%, the maximum IOP decrease from baseline was 6.6 mmHg (35%) at 78 h; the maximum OSH score was 1.75 at 74 h. This compound was also tested in laser-induced hypertensive monkeys, using one single day dose. At 0.01%, the maximum IOP decrease from baseline was 20.2 mmHg (53%) at 24 h.

Row | Structure (SMILES) | maximum IOP decrease from baseline (0.1%) | maximum IOP decrease from baseline (0.005%) | maximum IOP decrease from baseline (0.01%)
1 | O=C(O)CCC/C=C\C[C@@H]1[C@@H](COc2cc(Cl)cc(CO)c2)[C@H](O)C[C@H]1Cl [(Z)-7-[(1R,2S,3R,5R)-5-Chloro-2-(3-chloro-5-hydroxymethyl-phenoxymethyl)-3-hydroxy-cyclopentyl]-hept-5-enoic acid] | 2.2 mmHg | – | –
2 | O=C(O)c1ccc(CCC[C@@H]2[C@@H](COc3cc(Cl)cc(Cl)c3)[C@H](O)C[C@H]2Cl)s1 [Example 4, 5-{3-[(1R,2S,3R,5R)-5-Chloro-2-(3,5-dichloro-phenoxymethyl)-3-hydroxy-cyclopentyl]-propyl}-thiophene-2-carboxylic acid] | 7.5 mmHg | 6.6 mmHg | 7.5 mmHg
3 | O=C(O)c1ccc(CCC[C@@H]2[C@@H](COc3cc(Cl)cc(CO)c3)[C@H](O)C[C@H]2Cl)s1 [Example 5, 5-{3-[(1R,2S,3R,5R)-5-Chloro-2-(3-chloro-5-hydroxymethyl-phenoxymethyl)-3-hydroxy-cyclopentyl]-propyl}-thiophene-2-carboxylic acid] | 5.2 mmHg | – | –
4 | Cc1cc(C)cc(OC[C@@H]2[C@@H](CCCc3ccc(C(=O)O)s3)[C@H](Cl)C[C@H]2O)c1 [Example 6, 5-{3-[(1R,2S,3R,5R)-5-Chloro-2-(3,5-dimethyl-phenoxymethyl)-3-hydroxy-cyclopentyl]-propyl}-thiophene-2-carboxylic acid] | – | – | 6.4 mmHg
5 | N#C[C@@H]1C[C@@H](O)[C@H](COc2cc(Cl)cc(Cl)c2)[C@H]1CCCc1ccc(C(=O)O)s1 [Example 9, 5-{3-[(1S,2S,3R,5R)-5-Cyano-2-(3,5-dichloro-phenoxymethyl)-3-hydroxy-cyclopentyl]-propyl}-thiophene-2-carboxylic acid] | – | – | 3.1 mmHg
6 | CC(C)OC(=O)CCC/C=C\C[C@@H]1[C@@H](COc2cc(Cl)cc(CO)c2)[C@H](O)C[C@H]1Cl [Example 12, (Z)-Isopropyl 7-((1R,2S,3R,5R)-5-chloro-2-((3-chloro-5-(hydroxymethyl)phenoxy)methyl)-3-hydroxycyclopentyl)hept-5-enoate] | 5.9 mmHg | – | –
7 | CC(=O)OCc1cc(Cl)cc(OC[C@@H]2[C@@H](C/C=C\CCCC(=O)OC(C)C)[C@H](Cl)C[C@H]2O)c1 [Example 13, (Z)-Isopropyl 7-((1R,2S,3R,5R)-2-((3-(acetoxymethyl)-5-chlorophenoxy)methyl)-5-chloro-3-hydroxycyclopentyl)hept-5-enoate] | 3.4 mmHg | – | –
8 | CC(C)OC(=O)c1ccc(CCC[C@@H]2[C@@H](COc3cc(Cl)cc(CO)c3)[C@H](O)C[C@H]2Cl)s1 [Example 14, Isopropyl 5-{3-[(1R,2S,3R,5R)-5-Chloro-2-(3-chloro-5-hydroxymethyl-phenoxymethyl)-3-hydroxy-cyclopentyl]-propyl}-thiophene-2-carboxylate] | 6.1 mmHg | – | –
